Assay results taken from PubChem BioAssay AID652104 (National Center for Advancing Translational Sciences (NCATS), 2013).
Out of some 410,000 compounds screened, about 7,200 (1.8%) were called active. This list was built around the results that the source calls inconclusive (neither active nor inactive); the mix of calls is not that of the screen. Calls follow the shape of the dose curve; as a rule, active = well fitted activation curve with a large enough effect; inconclusive = small, poorly fitted or top-dose-only effect, or another doubt; inactive = no such curve, though single readings can be large or run the other way. Potencies of inconclusive entries are left out as doubtful fits.

Assay: qHTS of TDP-43 Inhibitors; also: nearly all actives have a fitted effect of over 50% in size; as to growth rescue (activation): % of control where 0% means no effect
Settings: TDP-43 expressing yeast growth rescue, BacTiter-Glo, 24 h; growth rescue (activation): at 46.1 µM (top of the series) unless noted
In short: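 Luminescence from BacTiter-Glo reports growth of TDP-43-expressing yeast after 24 hr at 30 deg C with compound. Cells were raffinose-pregrown to mid-log, then seeded in galactose medium at OD600=0.02.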
Potency is read from the fitted curve at half-maximal effect; tags tell the direction and shape of the fitted curve.

SMILES | Potency | growth rescue (activation)
CC(=O)c1ccc(NC(=O)CSc2nnc3ccc(-c4ccc(Cl)cc4)nn23)cc1 | inconclusive [activator, full curve, poor fit] | 
Cc1nn(Cc2ccc(F)cc2)c2sc(C(=O)Nc3ccc(N4CCOCC4)cc3N3CCOCC3)cc12 | active: 14.1 µM | 
CC1(C(=O)N/N=C/c2ccc([N+](=O)[O-])o2)CC1(Br)Br (stereo not drawn) | inconclusive [activator, single point] | 
COc1ccc(S(=O)(=O)n2oc(=O)cc2-c2ccccc2)cc1 | inconclusive [activator, single point] | 
COc1ccccc1N1CCN(C(=S)Nc2ccccc2)CC1 | inconclusive [activator, partial curve] | 
COc1ccc(Cl)cc1NC(=O)c1cnccn1 | inconclusive [activator, partial curve] | 
N#Cc1nc(-c2ccc(F)cc2)oc1N1CCCCC1 | inconclusive [activator, partial curve] | 
COCCCn1c(SCC(N)=O)nnc1-c1ccccc1 | inactive | 
COc1cc(NC(=O)c2cc(-c3cccs3)on2)cc(OC)c1OC | inconclusive [activator, partial curve] | 
COc1ccccc1N1CCN(C(=O)c2oc3c(c2C)C(=O)CC(C)(C)C3)CC1 | inconclusive [activator, single point] | 
Cc1cc(C(=O)NCc2ccc3c(c2)OCO3)ccc1[N+](=O)[O-] | active: 17.8 µM | 
O=C(CNC(=O)OCc1ccccc1)NC1CCCCNC1=O (stereo not drawn) | inactive | 
COc1ccccc1Cc1nc(-c2ccncc2)no1 | inconclusive [activator, partial curve] | 
COc1ccc(-c2csc(N3CCN(C(=O)c4ccccc4)CC3)n2)cc1 | inconclusive [activator, single point] | 
COc1ccc(S(=O)(=O)N[C@@H]2C=C[C@@H](CC(=O)N3CCc4ccccc4C3)O[C@@H]2CO)cc1 | inconclusive [activator, full curve] | 
Cc1ccc(Cl)cc1-n1ncc2c(NC3CCCCCC3)ncnc21 | active: 14.1 µM | 
S=c1[nH]nc(-c2ccco2)n1/N=C/c1ccccc1Cl | inconclusive [activator, partial curve] | 
COC(=O)c1oc2c(c1C)C1(CCC2)SCCS1 | inconclusive [activator, partial curve] | 
N#Cc1nc(-c2cccs2)oc1NCc1ccc(Cl)cc1 | inconclusive [activator, single point] | 
O=C(NCc1ccccc1)C(c1ccc(F)cc1)N(C(=O)c1csnn1)c1ccccc1 (stereo not drawn) | inactive | 
COc1ccc(-c2cc(-c3ccccc3)n3ncnc3n2)cc1 | inconclusive [activator, partial curve] | 
CC(C)(C)OC(=O)N1CCC(c2c(C(=O)N3CCN(C(=O)c4ccco4)CC3)cnn2-c2cccc(F)c2)CC1 | inactive | 
CCOc1ccc(-n2c(SCC(=O)N3CCOCC3)nc3c([nH]c4ccccc43)c2=O)cc1 | inactive | 
O=C(COC(=O)c1ccco1)c1ccc(S(=O)(=O)N2CCCCC2)cc1 | inactive | 
Cc1ccc(C(C)C)cc1OCC(=O)N/N=C/c1ccc2c(c1)OCCO2 | active: 12.6 µM | 

SMILES | Potency | growth rescue (activation)
COc1ccccc1-c1nc(-c2ccncc2)no1 | active: 11.2 µM | 
Cn1nnnc1Sc1ncnc2scc(-c3ccc(F)cc3)c12 | inconclusive [activator, single point] | 
Nc1nc(NCC2CCCO2)nc(Nc2ccccc2F)c1[N+](=O)[O-] (stereo not drawn) | inactive | 
Nc1ccc(Sc2nc3ccccc3[nH]2)cc1 | inconclusive [activator, partial curve] | 
Cc1ccc(NC(=O)/C(C#N)=C/c2ccc(Sc3nc(C)cc(C)n3)o2)cc1 | inactive | 
COc1cccc(C(=O)O/N=C(\N)c2ccc(C)cc2)c1 |  | inconclusive: -93.2% [activator]
O=C(O)c1cc(-n2c(/C=C\c3ccc(F)cc3)nc3ccccc3c2=O)ccc1Cl | inconclusive [activator, partial curve] | 
Cc1cc(C)c(S(=O)(=O)N2CCN(C(=O)c3ccc4c(c3)OCO4)CC2)c(C)c1 | active: 15.8 µM | 
CCc1nnc2c3ccccc3nc(Nc3ccc(C(C)=O)cc3)n12 | inconclusive [activator, partial curve] | 
O=C(Nc1ccc(N2CCN(C(=O)c3ccccc3)CC2)c(Cl)c1)c1cccnc1 | inconclusive [activator, partial curve] | 
Cc1ccc2nc(N(Cc3cccnc3)C(=O)COc3ccccc3)sc2c1 | inactive | 
Cc1ccc2c(CN3CCN(S(=O)(=O)c4ccccc4C(F)(F)F)CC3)cc(=O)oc2c1 | inconclusive [activator, single point] | 
O=C(CSc1ccc(-c2ccccn2)nn1)NCc1ccc(Cl)cc1 | inconclusive [activator, single point] | 
O=C(Nc1ccccc1)c1nnsc1S(=O)(=O)c1ccc(Cl)cc1 |  | inconclusive: -93.4% [activator]
COc1ccc(OC)c(NC(=O)c2noc3c2CCCC3)c1 | inconclusive [activator, partial curve] | 
O=C(NCC1COc2ccccc2O1)c1ccc(Cl)c(S(=O)(=O)N2CCCC2)c1 (stereo not drawn) | inconclusive [activator, single point] | 
Fc1ccc(C(Nc2ccccn2)c2c[nH]c3ccccc23)cc1 (stereo not drawn) | active: 20 µM | 
CCc1nc2sc(C#N)c(N)c2c2c1CCCC2 | inactive | 
CCCNC(=O)CCn1c(=S)oc2ccccc21 | inconclusive [activator, single point] | 
COc1ccc(-c2cc3nc(C)cc(C)n3n2)cc1 | inconclusive [activator, full curve] | 
COc1ccc(Cl)cc1S(=O)(=O)Nc1noc2ccccc12 | active: 10 µM | 
O=C(COc1ccc(Cl)cc1Cl)NNC(=S)Nc1ccc(F)cc1 | inconclusive [activator, single point] | 
CCN(C(=O)COC(=O)c1ccc([N+](=O)[O-])o1)c1cccc2ccccc12 | inconclusive [activator, single point] | 
CCOC(=O)C1=C(O)CSC1=Nc1ccc(Cl)cc1 | inconclusive [activator, partial curve] | 
COc1ccc(-c2nn3c(=O)cc(CN4CCN(C(=O)c5ccc(C(C)(C)C)cc5)CC4)nc3s2)cc1 | inactive | 

SMILES | Potency | growth rescue (activation)
CCOC(=O)CC(NS(=O)(=O)c1ccc2[nH]c3c(c2c1)CCCC3)c1ccccc1Cl (stereo not drawn) | active: 20 µM | 
O=S(=O)(NCCSc1ccccc1)c1ccc2c(c1)OCCO2 | inconclusive [activator, single point] | 
COc1ccccc1NC(=S)N(Cc1ccccn1)Cc1ccccc1Cl | inactive | 
CCC(c1nnnn1C(C)(C)C)N(Cc1ccco1)Cc1cc2cccc(C)c2[nH]c1=O (stereo not drawn) | inactive | 
Cc1nc2ccc(NS(=O)(=O)c3ccc(F)c(F)c3)cc2s1 | inconclusive [activator, partial curve] | 
CC(C)(C)NC(=O)C(CCc1ccccc1)n1c(=O)c(-c2ccccc2)nc2ccccc21 (stereo not drawn) | inconclusive [activator, partial curve] | 
O=c1oc2ccccc2n1Cc1cccc(Cl)c1 | inconclusive [activator, partial curve] | 
COc1ccccc1NC(=O)c1c[nH]c2ccccc12 | inconclusive [activator, single point] | 
CCOC(=O)c1c(-c2ccc(F)cc2)csc1NC(=O)c1c(-c2ccccc2)noc1C | inactive | 
COCCn1c(C)cc(C(=O)CSc2nnnn2C2CCCC2)c1C | inconclusive [activator, single point] | 
Cc1[nH]n(C(N)=S)c(=O)c1N=Nc1ccccc1C(F)(F)F | inconclusive [activator, full curve] | 
COc1cccc(N2CCN(c3ccc(S(=O)(=O)N4CCCC4)cc3)CC2)c1 | inactive | 
COc1ccc(N2CCN(C(=O)c3ccc(N(C)S(=O)(=O)c4ccc(OC)cc4)cc3)CC2)cc1 | inactive | 
CC(C)c1ccc(CCNC(=O)CSC(=S)N2CCCC2)cc1 | inconclusive [activator, partial curve] | 
C#CCn1c(=NC(=O)c2ccc(S(=O)(=O)N3CCc4ccccc4C3)cc2)sc2cc(S(N)(=O)=O)ccc21 | inactive | 
O=Cc1ccc(OC(=O)/C=C/c2ccccc2)cc1 | active: 17.8 µM | 
Cc1nc2ccc(NC(=O)c3cncc(Br)c3)cc2s1 | inconclusive [activator, partial curve] | 
Fc1ccc(Nc2nnc(-c3ccncc3)s2)cc1Cl | inconclusive [activator, full curve] | 
COc1ccc(N2CCN(S(=O)(=O)CCNC(=O)Cc3ccc(Cl)cc3)CC2)cc1 | inactive | 
CCOC(=O)C1CCN(C(=O)Cn2nc(C)n3c(cc4cc(F)ccc43)c2=O)CC1 | inconclusive [activator, partial curve] | 
COc1ccc(CN(Cc2cc3cc(OC)c(OC)cc3[nH]c2=O)C(=O)NC2CCCCC2)cc1 | inactive | 
O=C(Nc1nc2ccc([N+](=O)[O-])cc2s1)C1CCCO1 (stereo not drawn) | inconclusive [activator, partial curve] | 
Cc1ccc(S(=O)(=O)NC(=O)C2CCCCC2)cc1 | inconclusive [activator, partial curve] | 
